The subject of this series is ATP. Briefly: switch fluorescence ratio, 500 uM ATP over buffer (Cy3 cluster intensity, sum of 5 cycles each) (fold (ratio)); higher = stronger signal-on switching upon ATP binding; sequences stand for … in TCGTCGGCAGCGTCAGATGTGTATAAGAGACAGTTTTTTTTTTTTTTTTTTTTTTTTT…TC. Conditions: aptamer strand: ATP DNA aptamer (quencher-CACCTGGGGGAGTATTGCGGAGGAAGG + anchor), 100 nM annealed; ATP concentration: 500 uM; one replicate. In outline: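 Five buffer/ATP imaging cycles were run on Cy3-labelled switching-strand clusters on a modified Illumina MiSeq flow-cell, with NaOH stripping and re-annealing between cycles. In each cycle, clusters annealed to 100 nM quencher-labelled ATP aptamer were imaged in selection buffer, then after 15 min with 500 uM ATP at 22 °C. Per cluster, the fluorescence ratio is summed target-cycle over summed buffer-cycle Cy3 intensity, averaged per switch-domain sequence. Only clusters within 100-1000 RFU were kept.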

Among the data in the supplement of paper PMC10126150 are switch fluorescence ratio values, retold here.

Values marked as one replicate rest on one cluster of the flow cell; about a third of the high ones do not repeat.
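Also: ATP exposure 15 min at 22 °C before imaging.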

In the case of CCATTCTGAG, the switch fluorescence ratio worked out at 1.01.

As to AACTCGGGGA, the switch fluorescence ratio turned out to be 1.42.

In the case of CAAAAAGTTA, the switch fluorescence ratio was 1.04.

For TTGGGTTGCA, the switch fluorescence ratio is 0.971.

With GAATGTTTAC, the switch fluorescence ratio came to 1.04.

For the sequence CTTAAGTACC, the switch fluorescence ratio stood at 1.41.

Take TTACTATA: the switch fluorescence ratio was found to be 1.14.

As to ATATCCTCAT, the switch fluorescence ratio came to 0.997.

Turning to ATGTGACTGT, the switch fluorescence ratio amounted to 1.

Take ACCAGCGTAC: the switch fluorescence ratio is 3.38.

With TGTGTGAACG, the switch fluorescence ratio amounted to 0.992.

On to TGTGATTGAT, for which the switch fluorescence ratio came to 0.991.

Regarding CGCTTCTCAC, the switch fluorescence ratio came out at 1.7.

For GAAGCTTGCC, the switch fluorescence ratio was 1.05.

With CTCAATTTGG, the switch fluorescence ratio was determined as 0.963.

As for GGCCCTTCTC, the switch fluorescence ratio was determined as 1.19.

For the sequence TGTCATTGGC, the switch fluorescence ratio amounted to 0.976.

On to CGGGAATTAC, for which the switch fluorescence ratio amounted to 1.47.

For the sequence GGTTCATATC, the switch fluorescence ratio turned out to be 0.979.

On to ACATTGAAAT, for which the switch fluorescence ratio worked out at 0.993.

Take TTTGCTTGCT: the switch fluorescence ratio was determined as 1.

With GTTAATAGTT, the switch fluorescence ratio is 1.

Consider AATGGGGCCA, for which the switch fluorescence ratio is 1.

CCCCTGATTC: the switch fluorescence ratio is 1.04.

As for AATTTGGTT, the switch fluorescence ratio came out at 0.963.

GGAGTTGTCA: the switch fluorescence ratio was 0.957.

Turning to TGCCTGAGGA, the switch fluorescence ratio is 0.995.

Take TTGCTAGACA: the switch fluorescence ratio was 1.

On to CAGCTACGT, for which the switch fluorescence ratio amounted to 1.01.

In the case of AGGATGGGTA, the switch fluorescence ratio came out at 1.01.

Consider CATATGCGTT, for which the switch fluorescence ratio amounted to 0.974.

Consider ATTGGGTGCG, for which the switch fluorescence ratio came out at 0.952.

Take GATTCGCAAA: the switch fluorescence ratio turned out to be 1.11.

Take CTCAATTCGT: the switch fluorescence ratio is 1.01.

In the case of TGACGCGTTG, the switch fluorescence ratio worked out at 0.983.

With ACAATCTATT, the switch fluorescence ratio worked out at 1.01.

Take GATCCCGTAT: the switch fluorescence ratio is 1.04.

As for AGTAAAAG, the switch fluorescence ratio came out at 1.03.

As for AGACTAGTGG, the switch fluorescence ratio is 0.975.

Consider TGTTGCATGG, for which the switch fluorescence ratio amounted to 0.999.

CCGTTGTATG: the switch fluorescence ratio came out at 1.05.

In the case of GAGTTCCTGG, the switch fluorescence ratio came out at 0.985.

Consider TATCATTTTC, for which the switch fluorescence ratio turned out to be 1.04.

Take ATATCGAACC: the switch fluorescence ratio is 1.07.

GGGCTACATG: the switch fluorescence ratio was determined as 1.03.

As to CGTTTTCGAG, the switch fluorescence ratio turned out to be 0.989.

As for CATACCAGGT, the switch fluorescence ratio amounted to 1.52.

As for AGGCTAGTAA, the switch fluorescence ratio came out at 0.973.

On to CTACATATAT, for which the switch fluorescence ratio stood at 1.07.

As for TTAGTGTAGG, the switch fluorescence ratio turned out to be 1.17.

On to TTTCCTGATA, for which the switch fluorescence ratio turned out to be 1.03.

Consider AACGAGTCTC, for which the switch fluorescence ratio was determined as 1.02.

Regarding GCGATACGGC, the switch fluorescence ratio amounted to 1.9.

As to TTGGACTTTA, the switch fluorescence ratio was 0.974.

CCAGCGAGCA: the switch fluorescence ratio was 1.04.

For the sequence CCTGTATAC, the switch fluorescence ratio amounted to 3.34.

Consider TAATATGAA, for which the switch fluorescence ratio was found to be 0.981.

With GACTAGGCTA, the switch fluorescence ratio is 1.04.

In the case of CGCCTATTAG, the switch fluorescence ratio is 1.07.

AACTTTATG: the switch fluorescence ratio was 0.986.

Consider ACAGCACCGT, for which the switch fluorescence ratio was 1.36.

Consider GAGATAGCCT, for which the switch fluorescence ratio came out at 1.09.

Turning to ACTCCACACT, the switch fluorescence ratio is 1.7.

Consider CCAGAGGATG, for which the switch fluorescence ratio amounted to 0.963.

On to GGGTTACATA, for which the switch fluorescence ratio is 1.08.

TGAGGTACAT: the switch fluorescence ratio worked out at 1.07.

Consider GTTATATTGC, for which the switch fluorescence ratio was determined as 1.06.

TGCAACTGGT: the switch fluorescence ratio was 1.12.

Consider TTCAACGAAT, for which the switch fluorescence ratio was 0.993.

As for AGATGAACG, the switch fluorescence ratio came out at 1.04.

In the case of CTCCGTTGTT, the switch fluorescence ratio was 2.2.

Take CCGCTTTGTA: the switch fluorescence ratio turned out to be 1.41.

Regarding GAGGCACAA, the switch fluorescence ratio worked out at 1.11.

As for AGAGCCCCAA, the switch fluorescence ratio was 0.976.

Turning to CAATCCCATC, the switch fluorescence ratio turned out to be 1.05.

As for ATTCTTCTTT, the switch fluorescence ratio worked out at 1.01.

As to TAACGTACAG, the switch fluorescence ratio came to 1.67.

In the case of CCCTTCCAT, the switch fluorescence ratio stood at 1.27.

For the sequence ATGGAGCACC, the switch fluorescence ratio stood at 1.27.
